Data from the supplement of paper PMC10126150.
Sequences with one replicate were seen in a single cluster, so their values are uncertain.

These sequences were tested on ATP (assay: switch fluorescence ratio, 500 uM ATP over buffer (Cy3 cluster intensity, sum of 5 cycles each) (fold (ratio)); higher = stronger signal-on switching upon ATP binding; sequences stand for … in TCGTCGGCAGCGTCAGATGTGTATAAGAGACAGTTTTTTTTTTTTTTTTTTTTTTTTT…TC). Settings: aptamer strand: ATP DNA aptamer (quencher-CACCTGGGGGAGTATTGCGGAGGAAGG + anchor), 100 nM annealed; ATP concentration: 500 uM; one replicate.
Procedure, shortened: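 Imaging in selection buffer was followed by imaging after 15 min with 500 uM ATP at 22 °C, for Cy3-labelled switching-strand clusters annealed to 100 nM quencher-labelled ATP aptamer on a modified Illumina MiSeq flow-cell. Five of these buffer/ATP cycles ran, separated by NaOH stripping and re-annealing. The fluorescence ratio per cluster is summed target-cycle over summed buffer-cycle Cy3 intensity, averaged per switch-domain sequence; clusters outside 100-1000 RFU were removed.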
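Note: ATP exposure 15 min at 22 °C before imaging.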

| Sequence | switch fluorescence ratio |
| --- | --- |
| GCGCACCACT | 1.18 |
| GCGCACGGTG | 1.2 |
| GCGCACTCTC | 2.12 |
| GCGCAGATGG | 1.16 |
| GCGCATAGCG | 1.04 |
| GCGCCAACC | 1.06 |
| GCGCCCATCC | 1.13 |
| GCGCCCCGTC | 1.02 |
| GCGCCCGAAG | 1.37 |
| GCGCCGGAGT | 1.03 |
| GCGCCTTTGG | 1.03 |
| GCGCGGACG | 1.03 |
| GCGCGGATAT | 1.16 |
| GCGCGGCGCT | 0.97 |
| GCGCGTAATC | 1 |
| GCGCTACCTG | 0.996 |
| GCGCTACTAA | 1.12 |
| GCGCTACTGC | 1.05 |
| GCGCTATACA | 3.64 |
| GCGCTATGCG | 1.06 |
| GCGCTATTGT | 1.02 |
| GCGCTCATGG | 1.01 |
| GCGCTGCGAC | 1.29 |
| GCGGAAGCCC | 1.04 |
| GCGGACAACC | 1.06 |
| GCGGACACGT | 0.981 |

| Sequence | switch fluorescence ratio |
| --- | --- |
| GCGGACAGGG | 1.01 |
| GCGGATGGAG | 1.02 |
| GCGGCAGGTC | 1.05 |
| GCGGCAGTGG | 0.999 |
| GCGGCAGTGT | 0.997 |
| GCGGCCATTG | 1 |
| GCGGCCCGTT | 1.02 |
| GCGGCCGAGC | 1.01 |
| GCGGCTAATA | 1.02 |
| GCGGCTGT | 1.02 |
| GCGGGAAATA | 0.98 |
| GCGGGATCGC | 0.969 |
| GCGGGATGGA | 1.02 |
| GCGGGATTCA | 0.996 |
| GCGGGGACCG | 1.01 |
| GCGGGGCGT | 0.973 |
| GCGGGGTGTA | 0.984 |
| GCGGGGTTCT | 1.03 |
| GCGGGTACGT | 0.988 |
| GCGGGTGACA | 1.03 |
| GCGGGTGTTT | 1.05 |
| GCGGTAG | 0.99 |
| GCGGTAGACT | 0.987 |
| GCGGTATAAC | 1.05 |
| GCGGTATTAG | 0.963 |
| GCGGTCCCAC | 1.04 |

| Sequence | switch fluorescence ratio |
| --- | --- |
| GCGGTCGTTG | 1.01 |
| GCGGTCTATA | 1.01 |
| GCGGTCTTCA | 1.01 |
| GCGTAAAGGC | 0.984 |
| GCGTAAGGAT | 0.982 |
| GCGTAATCTC | 2.15 |
| GCGTACAAT | 0.993 |
| GCGTAGTCTG | 0.938 |
| GCGTATAGTG | 1.02 |
| GCGTATTAAT | 1.02 |
| GCGTATTCGT | 1 |
| GCGTCAATCC | 2.67 |
| GCGTCACAGG | 1.25 |
| GCGTCCAGCA | 1.01 |
| GCGTCCAGCT | 0.947 |
| GCGTCCCAGC | 0.934 |
| GCGTCGAGGT | 0.986 |
| GCGTCGCAGA | 1 |
| GCGTCGCTGC | 1.09 |
| GCGTCGGAA | 1 |
| GCGTCTATCC | 0.979 |
| GCGTCTGCTG | 1 |
| GCGTGACGCC | 0.997 |
| GCGTGCCCAC | 0.981 |
| GCGTGCTAGG | 0.959 |
| GCGTGGCGGT | 1.04 |

| Sequence | switch fluorescence ratio |
| --- | --- |
| GCGTGGGGTG | 1.04 |
| GCGTGGTACT | 1.06 |
| GCGTGGTAGG | 1.03 |
| GCGTGTACGT | 1.01 |
| GCGTGTAGCC | 0.967 |
| GCGTGTAGCT | 1.02 |
| GCGTGTATAT | 0.994 |
| GCGTTAATTA | 0.958 |
| GCGTTAGGAC | 1.02 |
| GCGTTATAGT | 1.02 |
| GCGTTATGTT | 1.02 |
| GCGTTATTC | 1.01 |
| GCGTTCCTC | 1.69 |
| GCGTTGACTG | 1.07 |
| GCGTTGCCAC | 1 |
| GCGTTGTACC | 1.02 |
| GCGTTGTAGC | 1.07 |
| GCGTTGTG | 1.03 |
| GCGTTTAACG | 1.01 |
| GCGTTTTCTG | 0.978 |
| GCTAAGTCCA | 1.03 |
| GCTACAACGA | 1.05 |
| GCTACACTAT | 1.08 |
| GCTACTATGG | 0.973 |
| GCTACTGAAC | 1.19 |
| GCTACTGACG | 1.07 |

| Sequence | switch fluorescence ratio |
| --- | --- |
| GCTACTTCC | 2.22 |
| GCTAGAGTTT | 1.02 |
| GCTAGATAGT | 1.01 |
| GCTAGATCTA | 0.979 |
| GCTAGATTTT | 1.01 |
| GCTAGCGGGA | 0.993 |
| GCTAGCTACA | 1.02 |
| GCTAGCTGCC | 1.05 |
| GCTAGGACCG | 1.09 |
| GCTAGGCATA | 1.04 |
| GCTAGGGAAA | 0.977 |
| GCTAGGGGGC | 0.98 |
| GCTAGGTCAT | 1.01 |
| GCTAGTAATA | 1.05 |
| GCTAGTCATC | 1.02 |
| GCTATCTAGT | 0.986 |
| GCTATGTTGG | 0.989 |
| GCTATTATA | 1.04 |
| GCTCAAAAGC | 1.02 |
| GCTCACATGA | 1.02 |
| GCTCACGGG | 1.05 |
| GCTCAGAAAA | 1.06 |
| GCTCAGCGTC | 1.29 |
| GCTCATCAAT | 1.63 |
| GCTCATCGTA | 1 |
| GCTCATTAAT | 1.01 |

| Sequence | switch fluorescence ratio |
| --- | --- |
| GCTCCAAGGT | 1.27 |
| GCTCGAAAGG | 1.01 |
| GCTCGCATTG | 1.07 |
| GCTCGGATCA | 0.958 |
| GCTCTACGGA | 1.08 |
| GCTCTAGGGT | 0.992 |
| GCTCTATGTT | 0.986 |
| GCTCTATTGC | 0.993 |
| GCTCTGAAAT | 1.9 |
| GCTCTTAGTA | 1 |
| GCTCTTTAC | 1.21 |
| GCTGAACACC | 1.02 |
| GCTGAACTAA | 0.978 |
| GCTGAATTTC | 1 |
| GCTGACGTCT | 0.961 |
| GCTGCACTCC | 2.15 |
| GCTGCAGCAG | 1.05 |
| GCTGCAGGAA | 1.01 |
| GCTGCATAA | 1.02 |
| GCTGCATCTA | 1.01 |
| GCTGCGGAAC | 1.81 |
| GCTGCTGCTG | 0.929 |
| GCTGGACATG | 1.04 |
| GCTGGAGAAG | 0.999 |
| GCTGGATTG | 0.983 |
| GCTGGCAAAT | 1.02 |

| Sequence | switch fluorescence ratio |
| --- | --- |
| GCTGGCAACT | 0.963 |
| GCTGGGGCTA | 1.02 |
| GCTGGGTG | 1.14 |
| GCTGGGTTTT | 1.05 |
| GCTGGTCTGT | 1.04 |
| GCTGGTGCTG | 1.01 |
| GCTGGTTGCA | 1.04 |
| GCTGTAAGGT | 1.01 |
| GCTGTAGTAC | 1.27 |
| GCTGTATTAG | 0.97 |
| GCTGTCAAGT | 0.957 |
| GCTGTCGGTA | 1.04 |
| GCTGTGCTA | 0.985 |
| GCTGTGGGAA | 1.03 |
| GCTGTGGGCT | 1.03 |
| GCTGTTACGT | 1 |
| GCTGTTGGAC | 1.09 |
| GCTTAACG | 0.985 |
| GCTTAACGGG | 0.983 |
| GCTTAATCGA | 0.971 |
| GCTTAATGCG | 1.02 |
| GCTTAGTGG | 0.964 |
| GCTTATCCGA | 0.988 |
| GCTTATGTGG | 0.922 |
| GCTTCACCTA | 1.07 |
| GCTTCAGGAA | 1.04 |

| Sequence | switch fluorescence ratio |
| --- | --- |
| GCTTCATTGC | 1 |
| GCTTCCCTGT | 1.09 |
| GCTTCCTCGG | 3.12 |
| GCTTCCTTCA | 1.51 |
| GCTTCGCGTA | 1.18 |
| GCTTCGTCTG | 1.11 |
| GCTTCTTTCC | 1.14 |
| GCTTGA | 0.998 |
| GCTTGAAGGT | 0.971 |
| GCTTGAGATA | 1.06 |
| GCTTGCATCC | 1.01 |
| GCTTGCCCGG | 0.981 |
| GCTTGCTCGG | 1 |
| GCTTGCTTTG | 0.982 |
| GCTTGGGCCT | 1.02 |
| GCTTGGGG | 0.962 |
| GCTTGGTGGG | 1.01 |
| GCTTGTACTA | 1.01 |
| GCTTGTCTCC | 1.05 |
